In the antibiotic and cytotoxicity screens of Wong et al. (2023):
The list shows a part of the results.

Tests used:
HSkMC = human skeletal muscle cells; assay: cytotoxicity call (relative viability < 0.9); settings: 10 µM
HepG2 = assay: cytotoxicity call (relative viability < 0.9); settings: 10 µM
S. aureus RN4220 = assay: growth inhibition call (relative growth <= 0.2); settings: 50 µM

Q: `C[C@@H]1CN([C@H](C)CO)C(=O)c2cc(NC(=O)CCC(F)(F)F)ccc2O[C@@H](C)CCCCO[C@H]1CN(C)S(=O)(=O)c1ccc(Cl)cc1` was tested. Which cytotoxicity call (HSkMC) did it give?
A: inactive

Q: What about the cytotoxicity call (HepG2) of the same molecule?
A: active

Q: What about the growth inhibition call (S. aureus RN4220) of the same molecule?
A: inactive

Q: What does the source list for `O=C(O)C=CC=Cc1ccc2c(c1)OCO2`?
A: cytotoxicity call (HSkMC): inactive; cytotoxicity call (HepG2): inactive; growth inhibition call (S. aureus RN4220): inactive

Q: Which cytotoxicity call (HSkMC) does the source give for `COc1ccc(CN(C)C[C@H]2Oc3ccc(NS(=O)(=O)c4cn(C)cn4)cc3C(=O)N([C@H](C)CO)C[C@H]2C)cc1` here?
A: inactive

Q: And the cytotoxicity call (HepG2)?
A: inactive

Q: And the growth inhibition call (S. aureus RN4220)?
A: inactive

Q: For `O=C(CCc1cn(-c2ccc(C[C@H]3C(=O)O[C@@H](Cc4ccccc4)[C@H]4C=C(/C=C/C5CC5)CN43)cc2)nn1)NO`, which cytotoxicity call (HSkMC) is on record?
A: inactive

Q: What about the cytotoxicity call (HepG2) of the same molecule?
A: inactive

Q: And the growth inhibition call (S. aureus RN4220)?
A: inactive

Q: Which results are given for `CN1C(=O)c2cc(NC(=O)Cc3cccs3)ccc2OC[C@H]2O[C@H](CC(=O)NCCCN3CCOCC3)CC[C@@H]21`?
A: cytotoxicity call (HSkMC): inactive; cytotoxicity call (HepG2): inactive; growth inhibition call (S. aureus RN4220): inactive

Q: `O=C(Cc1ccccn1)NCC[C@H]1CC[C@H](NC(=O)CN2CCOCC2)[C@@H](CO)O1` was tested. Which cytotoxicity call (HSkMC) did it give?
A: inactive

Q: What about the cytotoxicity call (HepG2) of the same molecule?
A: inactive

Q: And the growth inhibition call (S. aureus RN4220)?
A: inactive

Q: What does the source list for `COCC#Cc1ccc([C@H]2[C@H]3CN(C(=O)CN4CCOCC4)CC(=O)N3[C@H]2CO)cc1`?
A: cytotoxicity call (HSkMC): inactive; cytotoxicity call (HepG2): inactive; growth inhibition call (S. aureus RN4220): inactive

Q: For `C[C@H](CO)N1C[C@H](C)[C@H](CN(C)C(=O)Nc2ccc3c(c2)OCO3)OCCCC[C@H](C)Oc2ccc(NC(=O)C3CCCCC3)cc2C1=O`, which cytotoxicity call (HSkMC) is on record?
A: inactive

Q: And the cytotoxicity call (HepG2)?
A: inactive

Q: What about the growth inhibition call (S. aureus RN4220) of the same molecule?
A: inactive

Q: `COCC(=O)N1CC[C@]2(CC1)CN([C@H](CO)c1c2c2ccc(cc2n1C)OC)C(=O)Nc1ccccc1F` was tested. Which cytotoxicity call (HSkMC) did it give?
A: inactive

Q: What about the cytotoxicity call (HepG2) of the same molecule?
A: inactive

Q: And the growth inhibition call (S. aureus RN4220)?
A: inactive

Q: Which cytotoxicity call (HSkMC) does the source give for `Cc1noc(C)c1S(=O)(=O)Nc1ccc2c(c1)C(=O)N([C@@H](C)CO)C[C@H](C)[C@H](CN(C)S(=O)(=O)c1ccc(F)cc1)O2` here?
A: inactive

Q: And the cytotoxicity call (HepG2)?
A: inactive

Q: And the growth inhibition call (S. aureus RN4220)?
A: inactive
